This is an account of results in patent US20120263739A1, “ANTI INTEGRIN ANTIBODIES LINKED TO NANOPARTICLES LOADED WITH CHEMOTHERAPEUTIC AGENTS” (MERCK PATENT GMBH, priority 2009, published 2012).

The test system of data set [1] is αvβ3 integrin positive melanoma cells M21. The data set can be described thus: Cell detachment from vitronectin coated surface. The class given is cell-based. To be noted: 4 ng/μl, 4 h at 37° C. How it is done: FIG. 9: Cell detachment from vitronectin coated surface. For cell detachment assay, 96-well ELISA plates were coated with vitronectin and cells were allowed to attach and spread for 1 h. Then, 4 ng/μl of free DI17E6 or the different unloaded or doxorubicin nanoparticulate formulations were added and the plates were incubated for additional 4 h at 37° C. to induce detachment (concentrations are calculated referred to DI17E6 or equivalent NP amounts). Detached cells were removed and remaining attached cells were stained with CyQUANT GR and counted against untreated control as described in the manufacturer's instructions manual. (Internal control of each experiment n=10, one representative experiment out of 9 independent experiments is shown.)
For cell detachment assays, 96-well ELISA plates were coated with vitronectin as described above. After blocking, cells were allowed to attach and spread for 1 h in cell adhesion medium. Then, 4 ng/μl or 10 ng/μl of either free DI17E6 or the different nanoparticulate formulations (referred to free mAb) were added and the plates were incubated for additional 4 h at 37° C. to induce detachment. Subsequently, plates were washed and processed as for cell adhesion assay. Specific inhibition of attachment or induction of detachment were determined relative to vitronectin-coated surfaces blocked with BSA.

A short description of data set [2]: Particle content by microgravimetry. The class given is physicochemical. To be noted: mean ± SD; n = 3; 100% crosslinking. The method, then: (§1) Nanoparticles were analyzed with regard to particle diameter and polydispersity by photon correlation spectroscopy (PCS) using a Malvern Zetasizer 3000HSA (Malvern Instruments Ltd., Malvern, UK). The zetapotential was measured with the same instrument by Laser Doppler microelectrophoresis. Prior to both measurements the samples were diluted with filtered (0.22 μm) purified water. Particle content was determined by microgravimetry. For this purpose 50.0 μl of the nanoparticle suspension was pipetted into an aluminium weighing dish and dried for 2 h at 80° C. After 30 min of storage in an exsiccator the samples were weighed on a micro balance (Sartorius, Germany).

The nature of data set [3]: Zetapotential by Laser Doppler microelectrophoresis. Type of data set: physicochemical. To be noted: mean ± SD; n = 3; 100% crosslinking. How it is done: as §1
The subject of data set [4] is αv-defective melanoma cells M21L. Description: Cellular binding of nanoparticulate formulations, flow cytometry (FACS). The class given is cell-based. To be noted: 2 ng/μl, 4 h at 37° C. The method, then: (§2) Cellular binding: αvβ3 integrin-positive melanoma cells M21 and αv-negative melanoma cells M21L are incubated with DI17E6-coupled nanoparticles (NP-DI17E6) or nanoparticles coupled to an unspecific control mAb IgG (NP-IgG). […] Both nanoparticle preparations show low binding to M21L cells (FIG. 4D).
(§3) FIG. 4: Cellular binding of unloaded and doxorubicin loaded nanoparticulate formulations. αvβ3 integrin positive melanoma cells M21 (A and C) and αv-defective melanoma cells M21L (B and D) were treated with 2 ng/μl of the different unloaded (A and B) or doxorubicin loaded (C and D) nanoparticulate formulations for 4 h at 37° C. (concentrations are calculated referred to DI17E6 or equivalent NP amounts). Flow cytometry (FACS) analysis was performed to quantify their cellular binding. The data is shown as histogram of the FL1-H-channel (autofluorescence of the nanoparticles). Green: NP-DI17E6 and NP-Dox-DI17E6 respectively, red: NP-IgG and NP-Dox-IgG respectively, blue: untreated control. […]
(§4) M21 or M21L cells were cultured in 24-well plates (Greiner, Frickenhausen, Germany) and treated with the different nanoparticle formulations for 4 h at 37° C. […] Control nanoparticles without DI17E6 modification were used in equivalent nanoparticle quantities. […] Nanoparticles could be detected at 488/520 nm.
In general terms: In flow cytometry, cells or beads pass a laser one at a time.

Data set [5] relates to αvβ3 integrin positive melanoma cells M21. The data set is described as above. Type of data set: cell-based. The conditions noted are these: 2 ng/μl, 4 h at 37° C. The method, then:
as §2, §3, §4

Data set [6] deals with αvβ3 positive melanoma cells M21 on vitronectin. The data set can be described thus: Kinetic of cell detachment, transmitted light time lapse microscopy. Type of data set: cell-based. The conditions noted are these: total incubation time 1-2 d.
Data set [7] in a line: Particle diameter and polydispersity by photon correlation spectroscopy. Type of data set: physicochemical. The conditions noted are these: mean ± SD; n = 3; 100% crosslinking. The method, then:
as §1

A short description of data set [8]: Antibody bound to nanoparticle surface (SEC of supernatant). Type of data set: physicochemical. The method, then:
For the thiolation step of the antibodies, DI17E6 or IgG were dissolved in phosphate buffer pH 8.0 at a concentration of 1.0 mg/ml. For the introduction of thiol groups DI17E6 or IgG, respectively, were incubated with a 50 fold molar excess of 2-iminothiolane solution (c=1.14 mg/ml; 40.2 μl) for 2 h as previously described by Steinhauser et al. (2006). The antibodies were purified by size exclusion chromatography (SEC, D-Salt™ Dextran Desalting column). The resulting solutions contained thiolated antibody (DI17E6 or IgG, respectively) at a concentration of about 500 μg/ml. For the coupling reaction 1.0 ml of the sulfhydryl-reactive nanoparticle suspension was incubated with 1.0 ml of the thiolated DI17E6 or IgG, respectively, to achieve a covalent linkage between antibody and the nanoparticle system. For the preparation of samples with adsorptively attached antibody, 1.0 ml of the mPEG5000-SPA modified nanoparticles were incubated with 1.0 ml of thiolated DI17E6 or IgG, respectively. […] To determine unbound antibody the resulting supernatants were collected and analyzed by size exclusion chromatography (SEC) as described above. The amount of antibody bound to the nanoparticle surface was calculated as difference between the amount of antibody obtained after thiolation and purification and the amount of antibody determined in the supernatant obtained after the conjugation step.

B1: NP-DI17E6 (conjugate)
heavy: QVQLQQSGGELAKPGASVKVSCKASGYTFSSFWMHWVRQAPGQGLEWIGYINPRSGYTEYNEIFRDKATMTTDTSTSTAYMELSSLRSEDTAVYYCASFLGRGAMDYWGQGTTVTVSSASTKGPSVFPLAPCSRSTSESTAALGCLVKDYFPEPVTVSWNSGALTSGVHTFPAVLQSSGLYSLSSVVTVPSSNFGTQTYTCNVDHKPSNTKVDKTVEPKSSDKTHTCPPCPAPPVAGPSVFLFPPKPKDTLMISRTPEVTCVVVDVSHEDPEVQFNWYVDGVEVHNAKTKPREEQAQSTFRVVSVLTVVHQDWLNGKEYKCKVSNKGLPAPIEKTISKTKGQPREPQVYTLPPSREEMTKNQVSLTCLVKGFYPSDIAVEWESNGQPENNYKTTPPMLDSDGSFFLYSKLTVDKSRWQQGNVFSCSVMHEALHNHYTQKSLSLSPGK
light: DIQMTQSPSSLSASVGDRVTITCRASQDISNYLAWYQQKPGKAPKLLIYYTSKIHSGVPSRFSGSGSGTDYTFTISSLQPEDIATYYCQQGNTFPYTFGQGTKVEIKRTVAAPSVFIFPPSDEQLKSGTASVVCLLNNFYPREAKVQWKVDNALQSGNSQESVTEQDSKDSTYSLSSTLTLSKADYEKHKVYACEVTHQGLSSPVTKSFNRGEC
modifications: left off: another chain or arm of the molecule; things letters cannot carry; small tags and cut ends
Take B1: the “Cell detachment from vitronectin coated surfaces” value in data set [1] is listed as “cell detachment of αvβ3 positive melanoma cells M21 from vitronectin coated surfaces is also possible”. The Particle content in data set [2] was 15.92 ± 0.60 mg/mL. Also, the Zetapotential in data set [3] was −37.4 ± 2.9 mV. In addition, in data set [4], the “Cellular binding to M21L cells” value is reported as “comparable binding”. Further, the “Cellular binding to M21 cells” value in data set [5] was “higher binding to M21 cells than NP-IgG”. Besides, the “Detachment [h after incubation]” value in data set [6] was in the range of 2 to 22 h. Also, in data set [7], the Particle diameter came to 181.4 ± 16.4 nm and the Polydispersity was determined as 0.026 ± 0.013. Moreover, in data set [8] (covalent linkage), the “Covalent linkage of antibody to the particle surface” value was 14-18 μg antibody/mg nanoparticle. Also, in data set [8] (mean ± SD, n = 3, antibody per mg nanoparticle), the Antibody binding efficiency is 16.10 ± 1.90 µg/mg.
